# Measurements as given in the supplement of paper PMC12217912.
# Some of the results follow. The full chains were built here from the parent and the listed change. Inactive controls read about 0.05.
# B1: TEV protease; numbered along this chain (parent)
# chain: MGESLFKGPRDYNPISSSICHLTNESDGHTTSLYGIGFGPFIITNKHLFRRNNGTLVVQSLHGVFKVKDTTTLQQHLVDGRDMIIIRMPKDFPPFPQKLKFREPQREERICLVTTNFQTKSMSSMVSDTSCTFPSGDGIFWKHWIQTKDGQCGSPLVSTRDGFIVGIHSASNFTNTNNYFTSVPKNFMELLTNQEAQQWVSGWRLNADSVLWGGHKVFMVKPEEPFQPVKEATQL
# Variants of: B1
# Test: raw area under fraction-flipped curve 0-4 h after induction (AUC4h, not background-subtracted), DNA-recorder readout of cleavage of the substrate (dimensionless); higher = more cleavage of the substrate by the protease variant
# Conditions: temperature: 34 °C; time window: 0-4 h after rhamnose induction
# Protocol: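 In vivo DNA recorder in E. coli TOP10(DE3) ΔrhaA at 34 °C. Each TEVp single-site mutant (parent TEVp 0) is paired with a single-site variant of the 7-mer TEVs (canonical ENLYFQ|S). The substrate sits between flexible linkers in a Bxb1-sfGFP-TEVs-SsrA fusion, so cleavage stabilises Bxb1 and speeds flipping of a recombination array, read by NGS. The value is the raw area under the fraction-flipped curve over 0-4 h after rhamnose induction (AUC4h), with ≥20 reads per time point. It is not background-subtracted; inactive controls average about 0.047.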
# 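Further: Bxb1 expression induced with 0.2% (w/v) L-rhamnose at OD600 near 0.5, cultures sampled hourly, flipped fraction per protease–substrate barcode pair counted by paired-end Illumina sequencing.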
Variant,area with substrate EALYFQS,area with substrate EDLYFQS,area with substrate EELYFQS,area with substrate EFLYFQS,area with substrate EGLYFQS,area with substrate EKLYFQS,area with substrate ELLYFQS,area with substrate EMLYFQS,area with substrate EPLYFQS,area with substrate EQLYFQS,area with substrate ERLYFQS,area with substrate ESLYFQS,area with substrate ETLYFQS,area with substrate EVLYFQS,area with substrate EWLYFQS,area with substrate ECLYFQS,area with substrate EHLYFQS,area with substrate EILYFQS,area with substrate EYLYFQS
MGESLFKGPRDYNPISSSICHLTNESDGHTTSLYGIGFGPFIITNKHLFRRNNGTLVVQSLHGVFKVKDLTTLQQHLVDGRDMIIIRMPKDFPPFPQKLKFREPQREERICLVTTNFQTKSMSSMVSDTSCTFPSGDGIFWKHWIQTKDGQCGSPLVSTRDGFIVGIHSASNFTNTNNYFTSVPKNFMELLTNQEAQQWVSGWRLNADSVLWGGHKVFMVKPEEPFQPVKEATQL [T70L],0.0897,0.0894,0.0666,0.0857,0.0635,0.0789,0.0788,0.0977,0.161,0.0853,0.0825,0.0862,0.0765,0.0801,0.0787,–,–,–,–
MGESLFKGPRDYNPISSSICHLTNESDGHTTSLYGIGFGPFIITNKHLFRRNNGTLVVQSLHRVFKVKDTTTLQQHLVDGRDMIIIRMPKDFPPFPQKLKFREPQREERICLVTTNFQTKSMSSMVSDTSCTFPSGDGIFWKHWIQTKDGQCGSPLVSTRDGFIVGIHSASNFTNTNNYFTSVPKNFMELLTNQEAQQWVSGWRLNADSVLWGGHKVFMVKPEEPFQPVKEATQL [G63R],0.128,–,0.0946,–,–,0.1,–,–,0.0669,0.117,0.0955,0.0794,–,0.0947,–,0.0696,0.0797,0.0922,–
MGESLFKGPRDYNPISSSICHLTNESDGHTTSLYGIGFGPFIITNKHLFRRNNGTLVVQSLHLVFKVKDTTTLQQHLVDGRDMIIIRMPKDFPPFPQKLKFREPQREERICLVTTNFQTKSMSSMVSDTSCTFPSGDGIFWKHWIQTKDGQCGSPLVSTRDGFIVGIHSASNFTNTNNYFTSVPKNFMELLTNQEAQQWVSGWRLNADSVLWGGHKVFMVKPEEPFQPVKEATQL [G63L],0.0893,–,0.109,–,0.0895,0.068,0.0794,0.0984,0.0888,0.0824,0.132,0.0804,0.104,0.0787,0.0828,–,0.0534,0.0908,0.0577
MGESLFKGPRDYNPISSSICHLTNESDGHTTSLYGIGFGPFIITNKHLFRRNNGTLVVQSLHTVFKVKDTTTLQQHLVDGRDMIIIRMPKDFPPFPQKLKFREPQREERICLVTTNFQTKSMSSMVSDTSCTFPSGDGIFWKHWIQTKDGQCGSPLVSTRDGFIVGIHSASNFTNTNNYFTSVPKNFMELLTNQEAQQWVSGWRLNADSVLWGGHKVFMVKPEEPFQPVKEATQL [G63T],0.102,–,0.0994,–,0.107,0.0745,–,0.0806,–,0.123,0.0947,0.0917,0.094,–,0.0806,0.0967,0.087,0.0965,0.0914
MGESLFKGPRDYNPISSSICHLTNESDGHTTSLYGIGFGPFIITNKHLFRRNNGTLVVQSLHGVNKVKDTTTLQQHLVDGRDMIIIRMPKDFPPFPQKLKFREPQREERICLVTTNFQTKSMSSMVSDTSCTFPSGDGIFWKHWIQTKDGQCGSPLVSTRDGFIVGIHSASNFTNTNNYFTSVPKNFMELLTNQEAQQWVSGWRLNADSVLWGGHKVFMVKPEEPFQPVKEATQL [F65N],0.114,0.13,–,–,–,0.0885,0.0948,–,0.115,0.131,–,0.104,–,0.0853,–,0.0774,–,0.0949,–
MGESLFKGPRDYNPISSSICHLTNESDGHTTSLYGIGFGPFIITNKHLFRRNNGTLVVQSLHGVFKVADTTTLQQHLVDGRDMIIIRMPKDFPPFPQKLKFREPQREERICLVTTNFQTKSMSSMVSDTSCTFPSGDGIFWKHWIQTKDGQCGSPLVSTRDGFIVGIHSASNFTNTNNYFTSVPKNFMELLTNQEAQQWVSGWRLNADSVLWGGHKVFMVKPEEPFQPVKEATQL [K68A],0.122,–,0.13,0.0966,0.0995,–,0.101,0.129,–,0.117,0.101,0.137,–,0.0977,–,0.0805,0.112,0.0847,0.112
MGESLFKGPRDYNPISSSICHLTNESDGHTTSLYGIGFGPFIITNKHLFRRNNGTLVVQSLHGVFKVIDTTTLQQHLVDGRDMIIIRMPKDFPPFPQKLKFREPQREERICLVTTNFQTKSMSSMVSDTSCTFPSGDGIFWKHWIQTKDGQCGSPLVSTRDGFIVGIHSASNFTNTNNYFTSVPKNFMELLTNQEAQQWVSGWRLNADSVLWGGHKVFMVKPEEPFQPVKEATQL [K68I],0.11,–,0.145,0.0955,0.0863,0.095,0.0872,–,0.115,0.104,0.0973,0.0926,0.125,0.072,0.0732,0.0993,–,0.0815,–
MGESLFKGPRDYNPISSSICHLTNESDGHTTSLYGIGFGPFIITNKHLFRRNNGTLVVQSLHGVFKVYDTTTLQQHLVDGRDMIIIRMPKDFPPFPQKLKFREPQREERICLVTTNFQTKSMSSMVSDTSCTFPSGDGIFWKHWIQTKDGQCGSPLVSTRDGFIVGIHSASNFTNTNNYFTSVPKNFMELLTNQEAQQWVSGWRLNADSVLWGGHKVFMVKPEEPFQPVKEATQL [K68Y],0.128,0.133,–,–,–,0.136,–,0.113,–,0.112,0.0923,–,–,–,0.0935,0.113,–,0.0948,0.0982
MGESLFKGPRDYNPISSSICHLTNESDGHTTSLYGIGFGPFIITNKHLFRRNNGTLVVQSLHGVFKWKDTTTLQQHLVDGRDMIIIRMPKDFPPFPQKLKFREPQREERICLVTTNFQTKSMSSMVSDTSCTFPSGDGIFWKHWIQTKDGQCGSPLVSTRDGFIVGIHSASNFTNTNNYFTSVPKNFMELLTNQEAQQWVSGWRLNADSVLWGGHKVFMVKPEEPFQPVKEATQL [V67W],0.114,–,–,0.081,0.102,0.0857,0.103,0.108,0.106,0.114,0.107,0.115,0.0634,0.0916,0.0895,0.0716,–,0.0919,–
